Measured values published in paper PMC12598866, “A Comparative Study of Virucidal and Virustatic Multivalent Entry Inhibitors” (The Journal of Physical Chemistry. B, 2025).

How the values were obtained:
[1] = biological target: recombinant H1N1 (A/California/04/2009) hemagglutinin (HA1) (Influenza A virus, UniProt C3W5S1); experiment: Isothermal titration calorimetry with HA1; type: binding, influenza virus H1N1 (A/California/04/2009)
[2] = tested on: FluB; set-up: key: V: Virucidal; S: Virustatic; NA: No virucidal Activity
[3] = tested on: H1N1N09; experiment: Influenza virucidal assay; set-up: key: V: Virucidal; S: Virustatic; NA: No virucidal Activity; settings: virucidal titration at 90–99% viral inhibition concentration, MDCK cells
[4] = tested on: HSV-1; set-up: key: V: Virucidal; S: Virustatic; NA: No virucidal Activity
[5] = tested on: H1N1 clinical; set-up: key: V: Virucidal; S: Virustatic; NA: No virucidal Activity
[6] = tested on: H3N2; set-up: key: V: Virucidal; S: Virustatic; NA: No virucidal Activity
[7] = tested on: HSV-2; experiment: HSV-2 virucidal assay; set-up: key: V: Virucidal; S: Virustatic; NA: No virucidal Activity; settings: virucidal titration at 90–99% viral inhibition concentration, Vero cells

SMILES	Kd (HA1) ([1]; ITC, 25°C)	Virucidal activity, FluB [2]	Virucidal activity, H1N1N09 [3]	Virucidal activity, V-1 [4]	Virucidal activity, H1N1 clinical [5]	Virucidal activity, H3N2 [6]	Virucidal activity, HSV-2 [7]	Kd [1] [µM]	-∆TS (HA1) ([1]; ITC, 25°C) [kcal/mol]	∆G (HA1) ([1]; ITC, 25°C) [kcal/mol]	∆H (HA1) ([1]; ITC, 25°C) [kcal/mol]
O=S(=O)(O)CCCCCCSCc1cc(CSCCCCCCS(=O)(=O)O)cc(CSCCCCCCS(=O)(=O)O)c1 [B3C6SO3]	No binding										
O=S(=O)(O)OCCCCCCCCCCCSCc1cc(CSCCCCCCCCCCCOS(=O)(=O)O)cc(CSCCCCCCCCCCCOS(=O)(=O)O)c1 [B3C11SO4]		V	V	V	V	V	V	16.9	5.81	-6.51	-12.3
O=S(=O)(O)CCCCCCCCCCCSCc1cc2c(cc1CSCCCCCCCCCCCS(=O)(=O)O)OCCOCCOc1cc(CSCCCCCCCCCCCS(=O)(=O)O)c(CSCCCCCCCCCCCS(=O)(=O)O)cc1OCCOCCO2 [C4C11SO3]		V	V	V	V	V	V	29.1	-0.223	-6.19	-5.97
O=S(=O)(O)CCCCCCCCCCCSCc1cc(CSCCCCCCCCCCCS(=O)(=O)O)cc(CSCCCCCCCCCCCS(=O)(=O)O)c1 [B3C11SO3]								17.1	0.462	-6.5	-6.97
O=S(=O)(O)OCCCCCCCCCCCSCc1cc2c(cc1CSCCCCCCCCCCCOS(=O)(=O)O)OCCOCCOc1cc(CSCCCCCCCCCCCOS(=O)(=O)O)c(CSCCCCCCCCCCCOS(=O)(=O)O)cc1OCCOCCO2 [C4C11SO4]			V	V	V	V	V	23.3	0.385	-6.32	-6.7
O=S(=O)(O)OCCCCCCSCc1cc(CSCCCCCCOS(=O)(=O)O)cc(CSCCCCCCOS(=O)(=O)O)c1 [B3C6SO4]			V	V			V	26.6	-0.012	-6.24	-6.23
